Measurements from publication PMC10892871 (Viruses, 2024).
Read-outs that look alike come from different tables or passages of the source.

Test system: wild type B.1 SARS-CoV-2 strain
Assay type: cell-based

O=c1nc(NO)ccn1[C@@H]1O[C@H](CO)[C@@H](O)[C@H]1O [EIDD-1931]
IC50 Fold Reduction (plus NRM 0.025 μM): 1 fold
IC50 Fold Reduction (plus NRM 0.05 μM): 11 fold
IC50 Fold Reduction (plus NRM 0.1 μM): 88 fold
IC50 Fold Reduction (plus RDV 0.015 μM): 2 fold
IC50 Fold Reduction (plus RDV 0.03 μM): 26 fold
IC50 Fold Reduction (plus RDV 0.06 μM): > 26 fold

CC(C)(C)[C@H](NC(=O)C(F)(F)F)C(=O)N1C[C@H]2[C@@H]([C@H]1C(=O)N[C@H](C#N)C[C@@H]1CCNC1=O)C2(C)C [NRM, nirmatrelvir]
IC50 Fold Reduction (plus RDV 0.015 μM): 1 fold
IC50 Fold Reduction (plus RDV 0.03 μM): 8 fold
IC50 Fold Reduction (plus RDV 0.06 μM): 33 fold
